# Experimental data taken from PubChem BioAssay AID1345083 (National Center for Advancing Translational Sciences (NCATS), 2018).
# In all, about 94,000 compounds went through this assay and about 6,200 (6.6%) were called active. Inconclusive means that the source gave no clear call. Such entries were picked first, then a sample of the others. Calls come from the whole dose curve; as a rule, active = well fitted inhibition curve with a large enough effect; inconclusive = small, poorly fitted or top-dose-only effect; inactive = flat fitted curve, though single readings scatter. Potencies beside an inconclusive call are fits to weak or partial responses and may not hold up.
# Test: Cytotoxic Profiling in HEK 293 Cell Line of Diverse Libraries Using Quantitative High-Throughput Screening; note: nearly all actives have a fitted effect of over 60% in size
# Settings: HEK 293 viability, ATP luminescence (CellTiter-Glo), 48-72 h; activity change, negative = cytotoxicity: at 115 µM (top of the series) unless noted; series mostly up to 115 µM
# How it was run: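 Luminescence from cellular ATP, measured with CellTiter-Glo, indicates HEK 293 viability. Cells plated at 250 cells/well are treated with compound for 48 or 72 hr at 37 degree Celsius before reagent addition.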
# % is set by controls: 0 for no effect and ±100 for the full control effect; potency is the fitted concentration of half-maximal effect; tags give direction and shape of the fitted curve.
SMILES,Potency,"activity change, negative = cytotoxicity",outcome
O=C(C1CCCC1)N1CCc2nc(-c3ccc(Cl)cc3)nc(-c3ccccc3)c2C1,active: 17.8 µM,,
CSCC(=O)N1CCCC(CCc2cccc(F)c2)C1 (configuration not stated),active: 20 µM,,
C1CNCC(c2nc(CCOCC3CC3)no2)C1 (configuration not stated),"inconclusive: 89.1 µM [inhibitor, single point]",,
CC(=O)NC1CCCN(c2ccc3nnc(C4CC4)n3n2)C1 (configuration not stated),,inactive: -11% [at 172 µM],
CC(C)NC(=O)c1nc(-c2cccnc2)c2cnccn12,"inconclusive: 89.1 µM [inhibitor, partial curve, poor fit]",,
O=C(NCCc1c[nH]c2ccc(Cl)cc12)C1CC(=O)N(c2n[nH]c3ccccc23)C1 (configuration not stated),"inconclusive: 50.1 µM [inhibitor, partial curve, poor fit]",,
Cc1ccc(S(=O)(=O)NCCn2c(C)cnc2C2CCC2)c(C)c1,"inconclusive: 89.1 µM [inhibitor, single point]",,
CCOC(=O)C[C@@H]1C[C@@H](C(C)C)[C@H](CNC(=O)NC(C)C)C=C1C,"inconclusive: 112 µM [inhibitor, partial curve, poor fit]",,
COc1ccc(C[C@H](NC(=O)[C@@]2(O)C[C@@H](O)[C@H](O)[C@@H](NC(=O)CS(=O)(=O)c3ccccc3)C2)C(N)=O)cc1,,inactive: -25.3%,
Cc1noc(C)c1C(=O)N1CCC2(CC1)CN([S+](=O)([O-])c1ccccc1)CCO2,,inactive: 3.1%,
Cn1cc(CN2CCN(c3ccc(C#N)cn3)CC2)c(-c2ccccc2)n1,active: 79.4 µM,,
COc1ccc(C(=O)N2CCOC3(CCN(C(=O)CN)CC3)C2)cc1,,,inactive
CC(C)c1ccc(S(=O)(=O)N2CCC(Oc3ncccc3C(=O)N(C)C)C2)cc1 (configuration not stated),"inconclusive: 11.2 µM [inhibitor, partial curve, poor fit]",,
O=C(NCc1cc2n(n1)CCN(C1CCCCC1)C2)c1noc2c1CCCC2,,inactive: -20.7%,
O=C(C1CCCCC1)N1C[C@@H](CO)[C@@H]2Oc3c(F)cccc3[C@@H]21,"inconclusive: 56.2 µM [inhibitor, partial curve, poor fit]",,
Cn1ncc2c(C(=O)NCc3cccnc3)cc(C(C)(C)C)nc21,"inconclusive: 79.4 µM [inhibitor, partial curve, poor fit]",,
COCc1cc(=O)n(CC(=O)Nc2ccc(C(C)C)cc2)c(N2CCOCC2)n1,,inactive: -2.02%,
COc1ccc(N2CCN(c3cc(C4CC(N)C4)nc(N)n3)CC2(C)C)cc1 (configuration not stated),active: 22.4 µM,,
O=C(Nc1ccccc1F)C1CCCCN1Cc1ccc(-c2cccs2)cc1 (configuration not stated),"inconclusive: 56.2 µM [inhibitor, partial curve, poor fit]",,
Cc1ccccc1N(C)C1CN([S+](=O)([O-])c2cccc(C(F)(F)F)c2)C1,"inconclusive: 79.4 µM [inhibitor, partial curve]",,
CN(CC[C@H]1CN(C(=O)c2ccnc(Cl)c2)CC[C@H]1CC(=O)O)c1ccccc1,,inactive: -5.73% [at 172 µM],

SMILES,Potency,"activity change, negative = cytotoxicity",outcome
CCN1c2cc(C(=O)NCc3ccc(C)c(C)c3)ccc2C(=O)N2CCCCC21 (configuration not stated),"inconclusive: 89.1 µM [inhibitor, single point]",,
O=C(CCc1nc2ccc(Cl)cc2[nH]1)NCCc1noc(-c2cccnc2)n1,,inactive: -9.26%,
COc1ccc(Nc2ccnc(N3CCN(C(=O)c4ccc(C)cc4)CC3)n2)cc1,active: 12.6 µM,,
CCc1nc(C)c(C(=O)N2C[C@H]3CC[C@@H]2CN(C(=O)c2ccccc2)C3)s1,"inconclusive: 79.4 µM [inhibitor, partial curve, poor fit]",,
COc1cccc(S(=O)(=O)N2CCC3(CC2)C(OC)CN3c2cccc(F)c2)c1 (configuration not stated),,inactive: -12.7%,
COc1ccc(C(=O)N2CCc3ccc(C(=O)NCc4cccnc4)cc32)cc1,"inconclusive: 89.1 µM [inhibitor, single point]",,
COc1ccc(CN2CCC3(CC(c4cccc(C(F)(F)F)c4)=NO3)C2)cc1 (configuration not stated),"inconclusive: 20 µM [inhibitor, full curve, poor fit]",,
COc1cccc(CN2CCOC3(CCN(Cc4ccc(Cl)cc4)CC3)C2=O)c1,"inconclusive: 50.1 µM [inhibitor, partial curve, poor fit]",,
Cc1ccccc1CC(=O)Nc1ccc2ncnc(N3CCCCC3)c2c1,active: 39.8 µM,,
CC(C)C(=O)N1Cc2ccccc2CC2(CCCN(CC3CCOCC3)C2)C1 (configuration not stated),"inconclusive: 158 µM [inhibitor, partial curve, poor fit]",,
COc1ccc(-c2ccc(C(=O)Nc3ccccc3Cl)cc2)nn1,"inconclusive: 44.7 µM [inhibitor, partial curve, poor fit]",,
CCN1c2cc(C(=O)Nc3ccc(OC)cc3)ccc2C(=O)N2CCCCC21 (configuration not stated),"inconclusive: 44.7 µM [inhibitor, partial curve, poor fit]",,
C[S+](=O)([O-])CCn1ncc2cc(OCC3CCN(c4ncccn4)CC3)ccc21,"inconclusive: 89.1 µM [inhibitor, partial curve]",,
Cc1cccc(-c2cccc(CN3CCC(NC(=O)c4cccnc4)CC3)c2)c1,"inconclusive: 50.1 µM [inhibitor, partial curve, poor fit]",,
Cc1cccc(-c2cccc(CN3CCCC(C(=O)NCC4CC4)C3)c2)c1 (configuration not stated),"inconclusive: 50.1 µM [inhibitor, partial curve, poor fit]",,
COc1ccc(CC(=O)N2CC[C@H](CO)[C@H](O)C2)c(OC)c1,,inactive: -4.06%,
Cn1ncc2c(C(=O)NCCc3ccccn3)cc(-c3ccc(C(F)(F)F)cc3)nc21,"inconclusive: 50.1 µM [inhibitor, partial curve, poor fit]",,
O=C(Cc1ccc(F)cc1)N1CCC[C@H]1c1nc(-c2ccccc2)no1,"inconclusive: 89.1 µM [inhibitor, single point]",,
CC(C)Cn1c(=O)c(C(=O)N2CCCCC2)nc2cccnc21,,inactive: 3.01% [at 172 µM],
O=C1NCc2ccccc2CC12CCN(Cc1ccc(Cl)o1)C2 (configuration not stated),"inconclusive: 89.1 µM [inhibitor, partial curve, poor fit]",,
CCCCCC(=O)Nc1nc2c(s1)C[C@@H]1[C@](C)(CO)[C@H](O)CC[C@@]1(C)[C@@H]2CC(=O)NCc1cc(F)cc(F)c1,"inconclusive: 28.2 µM [inhibitor, full curve]",,
